In all, about 310,000 compounds went through this assay and about 14,000 (4.5%) showed an effect of 50% or more. Effects have a minus sign here. The list shows a part of the results.
target: human ether-à-go-go-related gene (hERG) potassium channel (human, UniProt Q12809); experiment: primary screen, population patch clamp on CHO cells stably expressing hERG
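Note: peak tail current of the secondary pulse compared with the same well before compound.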

Chain of human ether-à-go-go-related gene (hERG) potassium channel (Q12809 whole entry, looked up): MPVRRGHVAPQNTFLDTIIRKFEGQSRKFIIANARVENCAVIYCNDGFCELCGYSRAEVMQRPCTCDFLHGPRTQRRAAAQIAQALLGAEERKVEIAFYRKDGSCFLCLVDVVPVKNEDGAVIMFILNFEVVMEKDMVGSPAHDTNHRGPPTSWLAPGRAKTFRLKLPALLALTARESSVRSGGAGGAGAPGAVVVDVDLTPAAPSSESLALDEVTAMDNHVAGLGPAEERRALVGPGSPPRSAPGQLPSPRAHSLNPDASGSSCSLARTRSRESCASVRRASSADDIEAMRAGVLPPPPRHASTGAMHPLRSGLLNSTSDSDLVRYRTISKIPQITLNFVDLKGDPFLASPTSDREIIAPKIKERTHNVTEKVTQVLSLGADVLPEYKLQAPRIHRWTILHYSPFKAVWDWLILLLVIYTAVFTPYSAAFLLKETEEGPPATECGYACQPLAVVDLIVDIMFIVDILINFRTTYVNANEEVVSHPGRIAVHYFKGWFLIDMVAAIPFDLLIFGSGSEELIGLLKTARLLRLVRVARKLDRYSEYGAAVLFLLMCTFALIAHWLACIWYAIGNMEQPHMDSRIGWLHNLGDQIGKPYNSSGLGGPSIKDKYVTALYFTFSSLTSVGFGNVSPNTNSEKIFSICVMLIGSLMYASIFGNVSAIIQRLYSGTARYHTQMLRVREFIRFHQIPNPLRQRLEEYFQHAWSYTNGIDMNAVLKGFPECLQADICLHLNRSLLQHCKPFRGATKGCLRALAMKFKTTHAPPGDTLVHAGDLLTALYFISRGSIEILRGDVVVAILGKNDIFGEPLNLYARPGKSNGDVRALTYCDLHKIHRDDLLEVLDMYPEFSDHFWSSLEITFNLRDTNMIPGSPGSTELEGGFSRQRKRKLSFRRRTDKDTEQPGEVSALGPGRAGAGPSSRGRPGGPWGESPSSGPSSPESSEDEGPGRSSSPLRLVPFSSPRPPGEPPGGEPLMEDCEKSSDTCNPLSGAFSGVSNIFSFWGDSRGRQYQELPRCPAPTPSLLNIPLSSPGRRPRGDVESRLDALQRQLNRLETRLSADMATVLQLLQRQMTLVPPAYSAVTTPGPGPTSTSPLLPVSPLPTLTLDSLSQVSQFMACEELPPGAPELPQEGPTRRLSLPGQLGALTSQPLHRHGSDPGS

Point of comparison: `C=CCN1C(=O)C(CC(=O)NCC)SC1=Nc1cc(Cl)ccc1Cl` (centres unmarked), “hERG current change (%, negative = inhibition) at 10uM” value -2.76%. Against it:
- COc1nc(Cl)cn(-c2ccc(Cl)cc2)c1=O — higher, 27.3%
- COc1cc(OC)cc(C(=O)NC(=S)Nc2ccc(N3CCCC3)cc2)c1 — higher, -0.761%
- COc1ccc2c(=O)c3c(=O)n(-c4ccccc4)c(-c4ccco4)nc3oc2c1 — higher, 7.96%
- COc1ccc(CC(=O)OCC(=O)Nc2ccc(Cl)cn2)cc1 — lower, -8.45%
- COC(=O)c1ccccc1NC1c2ccccc2C(=O)N1c1cccnc1 (centres unmarked) — lower, -7.2%
- CCOC(=O)c1ccc(NC(=O)c2c(N)n(C)c(=O)[nH]c2=O)cc1 — higher, 8.69%
- COc1cc(C)c(NC(=O)C(=S)NCCc2ccccc2)cc1C — higher, 4.8%
- CSCC[C@H](N)C(=O)N1CCC(C(=O)N[C@H](C)C(=O)NC(C)c2ccccc2)CC1 (some centres unmarked) — higher, 6.17%
- CC1(C)CC(N2CCN(C(c3ccccc3)c3ccccc3)CC2)=CC(=[N+]2CCCCC2)C1.[I-] — lower, -72.1%
- CN(CCNC(=O)c1cn(C)c2ccc(S(=O)(=O)N(C)C)cc2c1=O)CCc1ccccc1 — lower, -27.1%
- CCOc1cccc(SCc2noc(C(=O)NCC3CCCO3)c2C(=O)O)c1 (centres unmarked) — higher, 32.2%
- CCOc1ccc2ccccc2c1CNc1nnnn1CC — lower, -9.78%
- CC(=O)c1c(C(C)=O)c(C)n(-c2nc(-c3ccc(C)c(C)c3)c(C)s2)c1C — higher, 25%
- COc1ccccc1C(=O)NC(C)c1cccc2ccccc12 (centres unmarked) — higher, 8.02%
- CCCN1C(=O)/C(=C/c2ccccc2OCc2ccc(C(=O)O)cc2)NC1=S — higher, 10.3%
- CCOc1ccc(N2C(=O)CC(Sc3n[nH]c(-c4ccccc4)n3)C2=O)cc1 (centres unmarked) — lower, -9.03%
- N#Cc1nc(-c2ccccc2F)oc1N1CCCC1 — higher, 9.47%
- Cc1ccc(C(=O)NCCC(=O)N2CCC3(CC2)NCCc2[nH]cnc23)cc1C — higher, 16.8%
- Cc1ccc(S(=O)(=O)N2CCCC2C(=O)N(C)Cc2cccs2)cc1 (centres unmarked) — lower, -19.9%
- Cc1ccc(C)c2c3c([nH]c12)-c1nonc1CC3 — higher, -1.57%
- CCn1c(SCC(=O)NC2CCCC2)nnc1C(C)NC(=O)c1ccccc1F (centres unmarked) — higher, 18.1%
- O=C(Cc1csc(Nc2nc(=S)[nH]c3ccccc23)n1)N1CCN(c2cccc(Cl)c2)CC1 — higher, 14.7%
- O=C1c2nc3cc(-c4ccco4)[nH]n3c(=O)c2CN1C1CCCCC1 — higher, 9.25%
- Cc1cccc(NC(=O)Cc2coc3ccc4ccccc4c23)n1 — lower, -20.7%
- O=C(O)C(=O)O.O=C(c1ccccc1)c1ccc(OCC(O)CNCc2cccc(Cl)c2)cc1 (centres unmarked) — lower, -60.3%
- COC(=O)c1ncn(C2OC(COC(C)=O)C(OC(C)=O)C2OC(C)=O)n1 (centres unmarked) — higher, 26.8%
- CCN1C(=O)[C@H]2[C@@H](c3ccc(-c4ccc(Cl)c(Cl)c4)c(OC)c3)N[C@@](Cc3ccccc3)(C(=O)OC)[C@H]2C1=O.O=C(O)C(F)(F)F — higher, 24.4%
- Cc1ccc(/C=N/Nc2ncc(Cl)cc2Cl)s1 — higher, 10.1%
- COC1=C(Nc2ccc(C)cc2)C(=O)c2ccccc2C1=O — higher, 5.87%
- CN(CCc1ccccn1)Cc1ccc(Cl)cc1 — lower, -53.7%
- Cn1cccc1/C=N/NC(=O)CNc1cccc2ccccc12 — lower, -10.6%
- C=CCn1c(SCc2csc(-c3ccc(Cl)cc3)n2)nnc1-c1ccccc1OC — lower, -23.5%
- CCOc1ccc(/C=N/NC(=O)Cc2ccccc2)cc1CN1CC2CC(C1)c1cccc(=O)n1C2 (centres unmarked) — lower, -12%
- O=S(=O)(Nc1ccon1)c1cc(Cl)ccc1Cl — higher, 12%
- CCCCN(C)C(=O)C(Cc1ccccc1)NS(=O)(=O)c1ccc2c(c1)CCC(=O)N2 (centres unmarked) — lower, -22.6%
- Cc1nn(-c2ccc(Cl)cc2)c2[nH]c(=O)c(CNCc3ccc4c(c3)OCO4)cc12 — lower, -70%
- O=C(NC(=S)Nc1nc2ccc(F)cc2s1)c1ccco1 — higher, -0.322%
- CCOc1cc(CN2CCN(c3cccc(C(F)(F)F)c3)CC2)ccc1OC — lower, -16.6%
- CCOC(=O)N1CCN(c2c(NCc3ccccc3Cl)c(=O)c2=O)CC1 — higher, 3.9%
- N/C(=N\O)c1ccncc1 — higher, 9.94%
- CCC(C(=O)OCC(=O)N(CC)c1c(N)n(Cc2ccccc2)c(=O)[nH]c1=O)c1ccccc1 (centres unmarked) — higher, 9.61%
- O=C(Nc1ccc(Cl)cc1)c1cccc(N2C(=O)C3C4CCC(C4)C3C2=O)c1 (centres unmarked) — lower, -7.49%
- CC(C)c1nnc(NC(=O)c2c(O)c3cccc4c3n(c2=O)CCC4)s1 — higher, 9.59%
- Cc1cccc(NS(=O)(=O)c2cn(C)c(=O)n(C)c2=O)c1C — higher, 10.8%
- O=C(Nc1cccc(S(=O)(=O)NC2=NCCCCC2)c1)c1cc(-c2ccccc2Cl)nc2ccccc12 — higher, 4.3%
- COc1ccc(S(=O)(=O)N2CCN(c3ccccc3OC)CC2)cc1OC — higher, -2.71%
- CC(=O)c1ccc(N2CCN(C(=O)C3CCCN(S(=O)(=O)c4c(C)[nH]c(=O)[nH]c4=O)C3)CC2)cc1 (centres unmarked) — higher, 23.4%
- CCOC(=O)N1CCN(S(=O)(=O)c2cccc3ccc(C)nc23)CC1 — lower, -7.34%
- Cc1ccccc1S(=O)(=O)Nc1nc2ccccc2nc1N1CCc2ccccc2C1 — higher, 12.9%
- CCC(C)c1ccccc1NC(=O)COC(=O)c1ccc(C)c(NC(=O)c2ccco2)c1 (centres unmarked) — lower, -8.97%
- CCOc1ccc(NC(=O)CN2C(=O)CSc3ccc(S(=O)(=O)N4CCOCC4)cc32)cc1 — lower, -24.9%
- CN1CCC(=NNC(=O)c2ccc(N(Cc3ccccc3Cl)S(C)(=O)=O)cc2)CC1 — lower, -6.81%
